Source: PubChem BioAssay AID493208 (National Center for Advancing Translational Sciences (NCATS), 2011)
The campaign covered roughly 44,000 compounds. About 340 (0.77%) were called active. Another 5% or so got no clear call; they are omitted. Calls come from the whole dose curve; as a rule, active = well fitted inhibition curve with a large enough effect; inconclusive = small, poorly fitted or top-dose-only effect; inactive = flat fitted curve, though single readings scatter. This is one part of the list.

experiment: Acumen qHTS Assay for Inhibitors of the mTORC1 Signaling Pathway in MEF (Tsc2-/-, p53-/-) Cells: Sytravon; conditions: phospho-rpS6 immunofluorescence/PI, 24 h; series mostly up to 38.3 µM; activity change, negative = inhibition: at the top concentration;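 note: plate controls were DMSO for no effect and rapamycin for full effect; nearly all actives have a fitted effect of over 50% in size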
Procedure, shortened: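 Compounds act on Tsc2-/-, p53-/- fibroblasts carrying an empty vector for 24 h before fixation and dual staining for phospho-S6 and DNA (propidium iodide). Values are percentages of cells above a rapamycin-defined pS6/PI threshold.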

Activity change, negative = inhibition, inactive:
COc1cccc(C(=O)Nc2cccc(-c3cn4ccsc4n3)c2)c1OC 0.352%
CCOC(=O)/C(C#N)=C/c1ccc(-c2ccc(Br)cc2)o1 -3.84%
Cc1ccccc1-c1noc(-c2cccnc2N2CCN(c3ccccc3)CC2)n1 1.76%
CCOC(=O)c1ccc(NC(=O)CCn2c(=O)c3cccn3c3cccnc32)cc1 -3.73%
O=C(Nc1ccc(F)cc1F)c1cc(-c2ccc(Cl)cc2)on1 3.42%
CCc1cccc(NS(=O)(=O)c2ccc(-n3cccn3)cc2)c1 -0.105%
CCN(CC)C(=O)Cn1c(=O)n(-c2ccc(C)c(C)c2)c(=O)c2c3c(sc21)CCCCC3 4.1%
COc1ccc(NC(=O)c2ccc3c(SCC(=O)O)c4c(nc3c2)CCCC4)c(OC)c1 1.45%
O=C(NCCCN1CCN(c2ccc(F)cc2)CC1)c1cnn(-c2ccc(F)cc2)c1-n1cccc1 -13.8%
Cc1cccc(-c2nc3c4ccccc4n(Cc4cccc(Cl)c4)c(=O)n3n2)c1 -8.41%
O=C(CN1C(=O)COc2ccc(S(=O)(=O)N3CCOCC3)cc21)N1CCN(c2cccc(Cl)c2)CC1 -8.07%
C#CCSc1nc(-c2ccccc2)cc(-c2ccccc2)c1C#N -17.1%
Cc1ccc(-n2c3c(cc(-c4nc(-c5ccc(Cl)cc5)cs4)c2=O)C(=O)CC(C)(C)C3)cc1C -3.41%
O=S(=O)(c1ccc(-c2cc(C(F)(F)F)on2)s1)N1CCN(c2ccc(F)cc2)CC1 -4.73%
Cc1cc(Br)ccc1NC(=O)Cn1cc(S(=O)(=O)N2CCN(c3ccccc3F)CC2)c2ccccc2c1=O 12.6%
COc1ccc(NC(=O)C2CCCN(c3ncnc4c3nc3n4CCCCC3)C2)c(OC)c1 (centres undefined) -15%
COc1cc(NS(=O)(=O)c2cc3c(cc2C)N(C)CCO3)cc(OC)c1OC -11.9%
Cc1ccc(C)c(N2CCN(C(=O)CCc3nnc4n(CC(C)C)c(=O)c5ccccc5n34)CC2)c1 -13.3%
Cc1ccc(CN2CCc3nc(Nc4ccc5c(c4)OCCO5)ncc3C2)cc1 9.81%
CCOc1ccc(CNC(=O)c2cnc3sc(N4CCOCC4)nn3c2=O)cc1 -7.96%
CCS(=O)(=O)N1CCc2cc(C(=O)Nc3ccc(C(=O)OC)cc3)ccc21 2.14%
CCn1cc(C(=O)N2CCN(c3cccc(Cl)c3)CC2)c2cc(OC)c(OC)cc2c1=O -4.19%
CC1=C(c2ccc(C(C)C)cc2)S(=O)(=O)NC1=NCCCN1CCN(c2ccccc2F)CC1 -3.66%
CCSc1oc(-c2ccco2)nc1S(=O)(=O)c1ccc(Br)cc1 -1.46%
CC(=O)c1ccc(Nc2nc3c(S(=O)(=O)c4ccccc4)nnn3c3ccc(Cl)cc23)cc1 -11.7%
CCN1c2ccccc2-c2nc(SCC(=O)NCc3ccccc3)ncc2S1(=O)=O -11.4%
COC(=O)CCNC(=O)NC(CCC(C)C)c1c(-n2cccc2)sc2c1CCN(C)C2 (centres undefined) 4.03%
CCC(=O)N1CCc2cc(S(=O)(=O)NCCC(=O)Nc3cc(C)ccc3OC)ccc21 0.969%
Cc1ccc2nc(-c3ccc(O)cc3)c(Nc3ccc(Cl)cc3)n2c1 -2.16%
COc1ccccc1NC(=O)Cn1c(=O)n(CCC(=O)NCC2CCCO2)c(=O)c2cc(OC)c(OC)cc21 (centres undefined) 0%
COc1ccccc1-c1cc2nc(C)c(CCC(=O)O)c(C)n2n1 -1.99%
CCCc1cc(=O)[nH]c(SCC(=O)N2CCN(c3ccccc3OC)CC2)n1 -0.173%
COc1cc(NC(=O)c2cc3c(s2)-c2ccccc2OC3)cc(OC)c1OC -6.76%
CCCN(CCC)C(=O)Cn1c(=O)n(-c2ccc(Cl)cc2)c(=O)c2c3c(sc21)CCCCC3 2.89%
Cc1ccc(-c2nn(-c3ccc(F)cc3)c3c2cnc2cc(F)c(F)cc23)cc1 3.7%
Cc1nn(-c2ccc(N3CCCCC3)nn2)c(C)c1CCC(=O)NCc1ccc(OC(C)C)cc1 1.23%
Cc1ccccc1C(=O)Nc1ccc(OCc2cc(=O)n3ccccc3n2)cc1 -13.9%
Cc1ccc(NC(=O)Cn2cc(S(=O)(=O)N3CCCC3)c(S(=O)(=O)N3CCCC3)c2)cc1F -0.478%
Cc1ccc(C)c(S(=O)(=O)c2nnn3c2nc(Nc2ccc(C)c(C)c2)c2ccccc23)c1 -4.66%
Cc1ccc(CCNC(=O)c2c[nH]c3ccc(S(=O)(=O)Nc4ccc(C)cc4C)cc3c2=O)cc1 -14.7%
COc1cccc(C(=O)NCC(c2ccc(N(C)C)cc2)N2CCc3ccccc32)c1 (centres undefined) 2.36%
CCc1ccccc1NC(=O)Cn1nnc(-c2nc(-c3ccc(C)cc3)no2)c1N -7.23%
Cc1ccc2c(c1)sc1nc(-c3cc4ccccc4oc3=O)cn12 -2.56%
CCOC(=O)c1ccccc1NC(=O)CN1C(=O)CC(c2ccco2)Sc2ccccc21 (centres undefined) 2.89%
Cc1oc(-c2ccc(Cl)cc2)nc1Cn1c(=O)cc(C)c2c(C)nn(-c3cccc(F)c3)c21 -17.7%
Cc1ccc(C(=O)Nc2ccc(C(=O)OCc3cc(=O)n4nc(C5CC5)sc4n3)cc2)cc1 0%
CCn1cc(C(=O)N2CCN(c3ccc(F)cc3)CC2)c(=O)c2cc(S(=O)(=O)N3CCOCC3)ccc21 -16.2%
COc1ccc(NC(=O)C(=O)NCC(c2ccc3c(c2)OCO3)N2CCN(C)CC2)cc1 (centres undefined) 0.448%
CCOc1cc(CNC(=O)CCCn2c(=O)c3cccn3c3cccnc32)cc(OCC)c1OCC 0.0431%
COc1ccc(CCNC(=O)c2cc(Nc3cc(C)cc(C)c3)nc3ccccc23)cc1OC -4.1%
CC(=O)Nc1cccc(NC(=O)CSc2cn(CC(=O)N(C(C)C)C(C)C)c3ccccc23)c1 3.83%
COc1ccc(NC(=O)CN2C(=O)COc3ccc(S(=O)(=O)Nc4ccccc4)cc32)cc1OC -1.52%
O=C(COCc1cc(-c2cccs2)on1)Nc1cccc(Cl)c1Cl -3.85%
CCN(c1cccc(C)c1)S(=O)(=O)c1ccc2c(c1)NC(=O)CCS2 2.09%
Cc1c(Cl)cccc1Nc1nn2c(=O)c3ccc(C(=O)NCCc4ccccc4)cc3nc2s1 -2.95%
COc1cccc(CNC(=O)C2CCN(c3nn4c(=O)cc(C)nc4s3)CC2)c1 1.72%
Cc1cccc(N(CC(=O)NCCSCc2ccc(Cl)cc2)S(C)(=O)=O)c1C -4.77%
O=C(NC1CC(=O)N(c2ccccc2)C1)c1ccc(Br)o1 (centres undefined) 1.5%
CCOc1ccc(NC(=O)c2cc3c(n(-c4ccc(OC)cc4)c2=O)CC(C)(C)CC3=O)cc1 3.23%
